From PubChem BioAssay AID1745853 (National Center for Advancing Translational Sciences (NCATS), 2022)
Values joined by “and” are separate entries in the source; they are usually repeats but may differ in a detail not shown here. Equal values may be shown once. This is one part of the list. Shown are side measurements of this screen, not its main read-out; they come without a call.

Assays:
Test in all cases: Primary Screen for Target Class Profiling of Small Molecule Inhibitors of Methyltransferases
[1] = molecular target: Glycine N-methyltransferase (Homo sapiens) (UniProt Q14749); settings: purified enzyme, MTase-Glo SAH luminescence; measured here: GNMT inhibition; at 40 µM; stronger effect = lower value
In short: (§1)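 Each enzyme was reacted with SAM and its substrate, with compounds tested once at 40 uM; SAH formed was read by MTase-Glo luminescence.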

[2] = molecular target: Guanidinoacetate N-methyltransferase (Homo sapiens) (UniProt Q14353); settings: purified enzyme, MTase-Glo SAH luminescence; measured here: GAMT inhibition; at 40 µM; stronger effect = lower value
In short: as §1

[3] = molecular target: Histamine N-methyltransferase (Homo sapiens) (UniProt P50135); settings: purified enzyme, MTase-Glo SAH luminescence; measured here: HNMT inhibition; at 40 µM; stronger effect = lower value
In short: as §1

[4] = molecular target: Nicotinamide N-methyltransferase (Homo sapiens) (UniProt P40261); settings: purified enzyme, MTase-Glo SAH luminescence; measured here: NNMT inhibition; at 40 µM; stronger effect = lower value
In short: as §1

[5] = molecular target: Phenylethanolamine N-methyltransferase (Homo sapiens) (UniProt P11086); settings: purified enzyme, MTase-Glo SAH luminescence; measured here: PNMT inhibition; at 40 µM; stronger effect = lower value
In short: as §1
% is scaled to controls: 0 for no effect and ±100 for the full control effect.

SMILES | activity change, negative = inhibition [1] | activity change, negative = inhibition [2] | activity change, negative = inhibition [3] | activity change, negative = inhibition [4] | activity change, negative = inhibition [5]
CC(=O)N[C@@H]1CCNC[C@@H]1c1nc(-c2ccccc2)no1 | -6.49% | -10.5% | -2.66% | -9.2% | -8.34%
c1ccc(-c2cc3c(cn2)NCCN(Cc2ccccn2)C3)cc1 | -26.1% | -10.3% | -75.6% | -27.7% | -27.8%
COc1ccc(CN2C(=O)c3cc4sccc4n3CC2(C)C(=O)NC2CCCCCCC2)cc1 (stereo not given) | 0.605% | 3.65% | 5.84% | -3.07% | 0.261%
O=C1c2cccnc2OC(COc2ccccc2)CN1Cc1cccs1 (stereo not given) | -8.13% | -7.11% | -3.11% | -9.88% | -6.06%
Cc1scc2c1N(C(=O)CN1CCN(C)CC1)c1ccccc1NC2=O | 6.68% | 14.8% | 14.1% | -6.49% | -0.336%
Cc1c(Cl)cccc1NC(=O)Cn1c(=O)c2ccccc2n2nncc12 | -0.698% | 0% | 4.57% | 1.81% | -4.73%
Cn1nc(C2CCCN2)c2c(C(=O)N3CCOCC3)cc(C3CC3)nc21 (stereo not given) | 1.71% | 0.919% | 3.31% | -7.5% | 2.63%
O=C(Cn1ccc2cc(S(=O)(=O)N3CCCCC3)ccc21)NCCCc1ccccc1 | -1.97% | 5.13% | -0.1% | -1.73% | -1.22%
COc1ccccc1NC(=O)CSc1nnc2n(Cc3ccc(C)cc3)c(=O)c3ccccc3n12 | -3.65% | 3.9% | 3.28% | -3.17% | 0.428%
CCCCS(=O)(=O)N1CCC(F)(c2nc(-c3ccccc3)no2)CC1 | -4.2% | -2.75% | 0.68% | -6.19% | -3.13%
CCCN1C(=O)c2c(C(=O)NCc3ccc(OCC)cc3)ncn2CC1(C)C(=O)NCCC(C)C (stereo not given) | 0.062% | 0.112% | 2.18% | 2.48% | 6.1%
CCC(C)NC(=O)Cn1nc(C)c2sc(-c3ccccc3)nc2c1=O (stereo not given) | -2.58% | -5.1% | -0.293% | -6.59% | -0.45%
CCCC1c2ccc(C)n2CCN1C(=O)Nc1ccc(C)cc1Cl (stereo not given) | -3.12% | 2.73% | -6.55% | 0.303% | -1.25%
CCc1cccc(N2C(=O)CSc3c(c4ccccc4n3C)C2C(=O)NCCCOC(C)C)c1 (stereo not given) | -1.8% | 0% | 5.48% | -11.6% | 0.526%
COc1ccc(C(=O)N2CCC(N3CCCC3=O)CC2)cc1 | -3.54% | -4.36% | -0.956% | -5.84% | -1.87%
CCCN1C(=O)c2c(C(=O)NCc3ccccc3Cl)ncn2CC1(C)C(=O)NCc1ccc(C)cc1 (stereo not given) | -3.57% | 4% | 7.46% | 1.83% | 3.16%
Cc1cc2c(cc1Cl)N(C(=O)Nc1ccc(Oc3cccnc3C)nc1)CC2 | -22.1% | 1.5% | -3.68% | -16.3% | -9.99%
COc1cccc(-c2ccc(C(=O)N3CCC(NC(=O)N(C)C)CC3)cc2)c1 | -5.25% | -2.2% | -2.19% | -11.8% | -6.64%
Cc1c(-c2ccnn2C)cc(C(=O)NCc2ccc(S(C)(=O)=O)cn2)c(=O)n1-c1cccc(C(F)(F)F)c1 | 1.01% and -13.5% and 2.26% | -4.01% and -21.7% and -10.7% | 0.255% and -2.75% and -3.42% | -20.9% and -29.8% and -22% | -10.5% and -8.65% and -11.6%
Cc1cccc(NC(=O)N2CCn3cccc3C2Cc2ccccc2)c1 (stereo not given) | 5.58% | 0% | 4.9% | 1.44% | 0.597%

SMILES | activity change, negative = inhibition [1] | activity change, negative = inhibition [2] | activity change, negative = inhibition [3] | activity change, negative = inhibition [4] | activity change, negative = inhibition [5]
Cc1ccc([C@@H]2CN(C(=O)c3c(-c4ccccc4)noc3C)C[C@H]2N(C)C)cc1 | -3.71% | -2.68% | -3.04% | -2.24% | 1.29%
N#CC1C(=O)Nc2scc(-c3ccc(-c4ccccc4O)cc3)c2C1=O (stereo not given) | -29.6% | -5.6% | 4.9% | -39.5% | -5.26%
Cc1ccc2c(c1)N(CC(=O)N1[C@@H]3CC[C@H]1CNC(=O)C3)C(=O)CO2 | -1.86% | -2.02% | 0.463% | -6.84% | -7.12%
CC(C)=CCC[C@](C)(O[C@@H]1O[C@H](CO[C@@H]2O[C@@H](CO)[C@H](O)[C@H]2O)[C@@H](O)[C@H](O)[C@H]1O)[C@H]1CC[C@]2(C)[C@@H]1[C@H](O)C[C@@H]1[C@@]3(C)CC[C@H](O[C@@H]4O[C@H](CO)[C@@H](O)[C@H](O)[C@H]4O[C@@H]4O[C@H](CO)[C@@H](O)[C@H](O)[C@H]4O)C(C)(C)[C@@H]3CC[C@]12C | -4.17% | 10% | 8.19% | 0.712% | 4.39%
CCN1C(=O)c2cc(C(=O)N3CCN(c4cccc(OC)c4)CC3)nn2CC1(C)C(=O)NC1CCCC1 (stereo not given) | 1.19% | 1.26% | 0.171% | 5.21% | 3.25%
Cc1ccc(CNS(=O)(=O)c2ccc3[nH]c4c(c3c2)CCCC4)o1 | -1.91% | 4.43% | -1.64% | -4.33% | -3%
CC(=O)c1ccc(S(=O)(=O)NC(=O)NC2CCCCC2)cc1 | 8.45% | 8.84% | 12.3% | -1.24% | 3.51%
CC(C)(C)C(=O)N1CCC(N2CCCC(C(=O)NCc3ccccc3)C2)CC1 (stereo not given) | -0.735% | -0.612% | 0.915% | 0.383% | -1.05%
COc1ccc(CNC(=O)c2cc3n(n2)CC(C)(C(=O)NCc2ccccc2)N(C)C3=O)cc1OC (stereo not given) | 3.67% | 4.86% | 7.39% | 4.47% | 4.03%
CCCn1c(=O)c2ccccc2n2c(=O)n(CC(=O)Nc3cccc(F)c3)nc12 | 1.96% | 0% | 7.55% | 3.06% | 4.57%
O=c1c2ccccc2n2c(SCc3ccccc3F)nnc2n1CCc1ccccc1 | -4.27% | 7.07% | -0.889% | -10.7% | -4.09%
CCCN1C(=O)c2c(C(=O)NCc3cc(OC)ccc3OC)ncn2CC1(C)C(=O)NC1CCCC1 (stereo not given) | -1.02% | 4.07% | 5.79% | 1.25% | 5.12%
CSc1ccc(CCN2C(=O)c3cc(-c4ccccc4)nn3CC2(C)C(=O)NCc2ccccc2)cc1 (stereo not given) | 4.53% | 0% | 3.58% | 1.4% | -14.9%
CCOC(=O)c1cc2n(n1)CC(C)(C(=O)NCc1ccccc1OC)N(c1cc(OC)cc(OC)c1)C2=O (stereo not given) | 0.694% | 1.01% | 4.86% | -1.41% | 0.307%
CCN(CC)CC(O)Cn1c2c(c3cc(C)ccc31)CCCC2=O (stereo not given) | -15.4% | -1.64% | -0.851% | 2.28% | -5.86%
CC(O)(C(=O)C1CC1(CO)COC1OC(CO)C(O)C(O)C1O)C1C(O)CC2C3CC=C4CC(O)CC(O)C4(C)C3C(O)CC21C (stereo not given) | 1.16% | 3.06% | 6.26% | -6.26% | 6.12%
CCOC(=O)C1CCN(S(=O)(=O)c2cccc(-c3nc(-c4ccccc4)no3)c2)CC1 | -1.5% | -0.051% | -5.92% | -19.4% | -8.37%
CCSC(=N)N | 3.62% | 6.96% | -7.99% | -13.1% | -5.09%
O=C(O)C1Cc2c([nH]c3ccccc23)C(c2ccccc2Br)N1 (stereo not given) | -20.3% | -0.128% | -9.86% | -10.1% | -7.4%
O=C1NCCOCCCN(C(=O)NCCc2ccccc2)[C@H]2CCCC[C@@H]12 | -3.31% | -2.4% | -18.3% | -5.66% | -0.625%

SMILES | activity change, negative = inhibition [1] | activity change, negative = inhibition [2] | activity change, negative = inhibition [3] | activity change, negative = inhibition [4] | activity change, negative = inhibition [5]
COC(=O)C1=CO[C@@H](O)C2C(CO)=CCC12 (stereo not given in full) | 1.99% | 7.46% | 12.4% | -2.94% | 9.25%
CC(C)(O)C1CCC2(C)CCCC(C)(O)C2C1 (stereo not given) | 6.67% | 2.66% | 10.2% | -7.56% | -0.415%
CCc1ccc(CN2C(=O)c3cc(-c4ccccc4)nn3CC2(C)C(=O)NCc2ccccc2OC)cc1 (stereo not given) | 2.4% | 1.18% | 5.04% | 4.56% | -0.917%
CC[C@@H](C)[C@H](NC(=O)[C@H](CC1CCCCC1)NC(=O)c1ccno1)C(=O)N1CCC2(CCc3ccccc32)CC1 | -0.949% | -27.4% | 5.23% | -43.5% | -21.1%
O=C(CCc1nnc2n(CCc3ccccc3)c(=O)c3ccccc3n12)NCCN1CCOCC1 | 2.11% | 0% | 6.68% | 13.7% | 1.47%
Cn1c(=O)c2ccc(C(=O)NC3CCCCC3)cc2n2c(=O)n(CC(=O)c3ccc(Cl)cc3)nc12 | 2.42% | 0.749% | 4.93% | -2.16% | -0.724%
COc1ccc(Cl)cc1NC(=O)c1ncn2c1C(=O)N(C1CC1)C(C)(C(=O)NCc1ccc(F)cc1)C2 (stereo not given) | -0.363% | 0.673% | -9.96% | -14.1% | 8.49%
CC(C)CCC(=O)CC1c2ccccc2C(=O)N1c1ccc2ccc(Cl)nc2n1 (stereo not given) | 0.735% | -7.17% | 7.17% | -20.3% | -3.96%
Nc1ncn([C@@H]2O[C@H](CO)[C@@H](O)[C@H]2O)c(=O)n1 | 2.04% | 10.4% | 5.29% | -2.62% | 8.06%
CCc1nc(C)c(C(=O)N2CC[C@@](O)(COC)C(C)(C)C2)s1 | -5.47% | -2.25% | -0.337% | -1.37% | -1.29%
O=C(NC1CCCC1)N[C@@H]1C[C@H](Cn2cc(C3CC3)nn2)[C@@H](O)[C@H]1O | -0.319% | 0.29% | -2.18% | -3.78% | -4.38%
CCCNC(C)C(=O)Nc1ccccc1C (stereo not given) | 3.19% | 9.4% | 4.2% | -3.04% | 7.44%
COc1ccc(CN(CCN(C)C)c2ccccn2)cc1 | 5.67% | 12.8% | -2.78% | -2.36% | 0.501%
CC(=O)Nc1cccc2c1c(Sc1ccc(Cl)cc1)c(C)n2CC(=O)O | -9.65% | -17.6% | 0.834% | -29% | -15.7%
COc1ccccc1CC(=O)Nc1cccn2nc(C(C)C)nc12 | -7.03% | -0.697% | -2.34% | -6.32% | 1.61%
COC(=O)[C@@]1(c2ccc(C)cc2)C[C@H]1CN1CCC(O)(c2ccccc2)CC1 | 1.54% | -8.45% | -10.7% | -16.1% | -11.9%
O=C(c1cccs1)N1CC[C@H]2COC(=O)N2c2cc(F)ccc2C1 | -0.374% | -3.4% | -0.158% | -5.46% | 0.592%
CCc1ccc(N2C(=O)c3cc4sc(CC)cc4n3CC2(C)C(=O)NC2CCCCC2)cc1 (stereo not given) | -0.771% | 5.57% | -3.46% | 0.566% | -4.61%
CNc1ncnc2c1ncn2[C@H]1C[C@H](OP(=O)(O)O)[C@@H](COP(=O)(O)O)O1 | 5.82% | 11.7% | 5.82% | -0.3% | 9.04%
O=C(CC1CCCC1)N1CC2CC(C1)[C@H]1CCCC(=O)N1C2 (stereo not given in full) | -1.32% | 3.78% | 1.65% | -2.3% | 13.7%
